The whole screen tested about 39,000 compounds, of which about 220 (0.56%) showed activity. The list shows a part of the results.
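Note: static incubation at 37 °C against the wild-type strain, values averaged over two biological replicates.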

In this test the test system is Escherichia coli K-12 BW25113. As to the kind of experiment: relative growth (OD600 normalised to plate interquartile mean) (fraction); higher = less growth inhibition, active = 0.2 or less. The following applies: 50 µM; LB; incubation time: overnight (16-24 h).
On to `C[C@@H]1CCCCO[C@@H](CN(C)S(=O)(=O)c2ccccc2)[C@H](C)CN([C@@H](C)CO)C(=O)c2cc(NS(=O)(=O)c3cn(C)cn3)ccc2O1`, for which the relative growth is inactive: 0.994.

`Cc1ccc(S(=O)(=O)N2C[C@H](O)COC[C@H]3O[C@@H](CC(=O)NCCN4CCCCC4)CC[C@@H]32)cc1`: the relative growth is inactive: 1.04. For `Cc1ccc(S(=O)(=O)N[C@H](C(=O)NCCn2cc(C(=O)NO)nn2)C(C)C)cc1`, the relative growth was inactive: 1.01. In the case of `C[C@H](NC(=O)N(C)C[C@@H]1OCc2ccccc2-c2ccccc2C(=O)N([C@@H](C)CO)C[C@H]1C)c1ccccc1`, the relative growth is inactive: 0.997.

As to `C[C@H]1CN([C@@H](C)CO)C(=O)c2cc(NC(=O)Nc3ccc(C(F)(F)F)cc3)ccc2O[C@H]1CN(C)Cc1ccncc1`, the relative growth was inactive: 0.992.

For `Nc1ncnc2c1ncn2[C@@H]1O[C@H](CO)[C@@H](O)[C@@H]1O`, the relative growth is inactive: 0.998. For `COc1ccc(NC(=O)Nc2cccc3c2O[C@@H](CN(C)S(=O)(=O)c2cn(C)cn2)[C@@H](C)CN([C@@H](C)CO)C3=O)cc1`, the relative growth was inactive: 1. On to `C[C@@H]1CN([C@@H](C)CO)C(=O)c2cc(NC(=O)Cc3ccccc3)ccc2O[C@@H](C)CCCCO[C@H]1CN(C)C(=O)Nc1ccccc1`, for which the relative growth is inactive: 1.03.

For the molecule `COCC(=O)N1C[C@@H](C)[C@@H](OC)CN(C)C(=O)c2cc(NC(=O)c3cc(C)on3)ccc2OC[C@H]1C`, the relative growth is inactive: 0.975.

Take `C[C@H]1CN([C@@H](C)CO)C(=O)c2cccc(NC(=O)c3ccc(-c4nccs4)cc3)c2O[C@@H]1CN(C)Cc1ccc(Cl)c(Cl)c1`: the relative growth is inactive: 1.01. For the molecule `COc1ccc2c3c([nH]c2c1)[C@H](CO)N(C[C@]13CCN(CCc2ccccc2)CC1)C(=O)CN1CCOCC1`, the relative growth is inactive: 1.01. Take `O=C(C[C@H]1C[C@@H]2c3cc(NS(=O)(=O)c4ccc(F)cc4)ccc3O[C@@H]2[C@H](CO)O1)NC1CCCCC1`: the relative growth is inactive: 0.983. As to `C[C@H](CO)N1C[C@H](C)[C@H](CN(C)S(C)(=O)=O)Oc2ccc(NC(=O)CCN3CCOCC3)cc2CC1=O`, the relative growth is inactive: 0.978. `Cc1sc2ncnc(N3CCC(Cn4cc(C(C)(C)N)nn4)CC3)c2c1C`: the relative growth was inactive: 1.01. Turning to `Cc1noc(C)c1S(=O)(=O)Nc1ccc2c(c1)C(=O)N([C@@H](C)CO)C[C@H](C)[C@@H](CN(C)S(C)(=O)=O)O2`, the relative growth was inactive: 0.986. Turning to `C[C@H](CO)N1C[C@H](C)[C@@H](CN(C)C(=O)Nc2cccc3ccccc23)OCCCC[C@H](C)Oc2ccc(NC(=O)c3ccccc3)cc2C1=O`, the relative growth is inactive: 1.02. In the case of `Cc1noc(C)c1S(=O)(=O)N(C)C[C@H]1Oc2ccc(NS(C)(=O)=O)cc2C(=O)N([C@@H](C)CO)C[C@H]1C`, the relative growth was inactive: 0.989. For `C[C@H]1CN([C@@H](C)CO)C(=O)c2cc(C#CCN(C)C)cnc2O[C@H]1CN(C)Cc1ccc2c(c1)OCO2` the value was inactive: 0.972; for `Cc1noc(C)c1NC(=O)Nc1ccc2c(c1)C(=O)N([C@H](C)CO)C[C@@H](C)[C@@H](CN(C)Cc1ccc(C(F)(F)F)cc1)OCCCC[C@@H](C)O2`, inactive: 1.02; for `Cc1ccc(S(=O)(=O)Nc2ccc3c(c2)CC(=O)N([C@H](C)CO)C[C@@H](C)[C@@H](CN(C)C(=O)Nc2cccc4ccccc24)O3)cc1`, inactive: 0.988. The result for `Cc1noc(C)c1S(=O)(=O)N(C)C[C@H]1Oc2ccc(NC(=O)NC3CCCCC3)cc2CC(=O)N([C@@H](C)CO)C[C@@H]1C` reads inactive: 0.994; that for `CO[C@@H]1CN(C)C(=O)c2ccc(NS(=O)(=O)c3ccccc3)cc2OC[C@@H](C)N(C(=O)NC(C)C)C[C@H]1C`, inactive: 1; that for `COc1ccc(-c2cnc3c(c2)C(=O)N([C@H](C)CO)C[C@H](C)[C@@H](CN(C)S(=O)(=O)c2ccc(OC)cc2)O3)cc1`, inactive: 1. For `C[C@H](CO)N1C[C@H](C)[C@@H](CN(C)C(=O)Nc2ccc(-c3ccccc3)cc2)OCc2ccccc2-c2ccccc2C1=O`, the relative growth was inactive: 1.01. The result for `C[C@@H]1CCCCO[C@@H](CN(C)C(=O)C2CCCCC2)[C@H](C)CN([C@H](C)CO)C(=O)c2cc(NC(=O)c3ccncc3)ccc2O1` reads inactive: 1.01; that for `Cc1noc(C)c1S(=O)(=O)N(C)C[C@@H]1OCCCC[C@@H](C)Oc2ccc(NS(=O)(=O)c3cn(C)cn3)cc2C(=O)N([C@@H](C)CO)C[C@H]1C`, inactive: 0.99; that for `NC1=NCCCC1`, inactive: 0.991. In the case of `C[C@@H]1CCCCO[C@H](CN(C)CC2CCCCC2)[C@@H](C)CN([C@H](C)CO)C(=O)c2cc(NC(=O)Nc3ccc(F)cc3)ccc2O1`, the relative growth is inactive: 1.01. `C=C(C(=O)O[C@H]1CC=C(C)C[C@H](O)[C@H]2[C@H](C)C(=O)O[C@@H]2/C=C/1C)[C@@H]1CCC(=C)[C@@H]2C[C@H](O[C@@H]3O[C@H](CO)[C@@H](O)[C@H](O)[C@H]3O)C(=C)[C@@H]2C1`: the relative growth was inactive: 0.957. For the molecule `C[C@H]1CN([C@@H](C)CO)C(=O)c2cccc(NC(=O)Nc3cccc4ccccc34)c2O[C@H]1CN(C)Cc1ccc(-c2ccccc2)cc1`, the relative growth was inactive: 1.03. In the case of `Cc1ccc(OC(=O)N(C)C[C@@H]2OCc3ccccc3-c3ccccc3C(=O)N([C@H](C)CO)C[C@@H]2C)cc1`, the relative growth is inactive: 1.06.

Take `COc1ccc(S(=O)(=O)N(C)C[C@@H]2OCCCC[C@H](C)Oc3ccc(NS(=O)(=O)c4ccc(Cl)cc4)cc3C(=O)N([C@H](C)CO)C[C@H]2C)cc1`: the relative growth was inactive: 1.05. `C[C@H]1CN([C@@H](C)CO)C(=O)c2cccc(NC(=O)c3ccc(-c4nccs4)cc3)c2O[C@H]1CN(C)C(=O)Nc1cccc2ccccc12`: the relative growth is inactive: 1.01. As for `C[C@H](CO)N1C[C@H](C)[C@H](CN(C)S(C)(=O)=O)Oc2ccc(NC(=O)NC3CCCCC3)cc2CC1=O`, the relative growth was inactive: 0.992.

With `Cc1noc(C)c1NC(=O)Nc1ccc2c(c1)C(=O)N([C@H](C)CO)C[C@@H](C)[C@@H](CN(C)S(=O)(=O)c1cn(C)cn1)O2`, the relative growth was inactive: 1.03. The result for `Cc1noc(C)c1NC(=O)Nc1ccc2c(c1)C(=O)N([C@H](C)CO)C[C@H](C)[C@H](CN(C)C(=O)Nc1cccc3ccccc13)OCCCC[C@@H](C)O2` reads inactive: 0.999.

Turning to `C[C@H](CO)N1C[C@H](C)[C@H](CN(C)S(=O)(=O)c2ccccc2F)Oc2cc(C#Cc3ccccc3)ccc2S1(=O)=O`, the relative growth is inactive: 1.04.

On to `Cc1cccc(/C=C(\CCC(=O)O)c2nc3ccccc3s2)c1`, for which the relative growth is inactive: 0.995. As to `Cc1noc(C)c1S(=O)(=O)Nc1ccc2c(c1)C(=O)N([C@@H](C)CO)C[C@@H](C)[C@@H](CN(C)S(C)(=O)=O)OCCCC[C@@H](C)O2`, the relative growth was inactive: 1.01. `CCNC1CC(N)C(OC2OC(CN)=CCC2N)C(O)C1OC1OCC(C)(O)C(NC)C1O.O=S(=O)(O)O.O=S(=O)(O)O` (stereo not given): the relative growth was inactive: 1.11. In the case of `C=C1CC2C3C=C(C)C4=CC(=O)CCC4(C)C3CCC2(C)C1(OC(C)=O)C(C)=O` (stereo not given), the relative growth is inactive: 1.06. In the case of `COCC(=O)N1C[C@]2(CCN(CC2)C(=O)CN2CCOCC2)c2c([nH]c3cc(ccc23)OC)[C@H]1CO`, the relative growth was inactive: 1. Turning to `Cn1ccc(C(=O)N2CCC3(CCOC[C@@H]3NS(C)(=O)=O)CC2)n1`, the relative growth is inactive: 1.01. On to `C[C@@H]1CN([C@@H](C)CO)C(=O)Cc2cc(NS(C)(=O)=O)ccc2O[C@H]1CN(C)C(=O)Nc1ccccc1`, for which the relative growth is inactive: 0.988.

As for `CC(C)N(CCCNC(=O)Nc1ccc(C(C)(C)C)cc1)C[C@H]1O[C@@H](n2cnc3c(N)ncnc32)[C@@H](O)[C@H]1O`, the relative growth is inactive: 0.961. Consider `CC(C)NC(=O)Nc1cccc2c1O[C@@H](CN(C)Cc1ccc(C(=O)O)cc1)[C@H](C)CN([C@H](C)CO)C2=O`, for which the relative growth was inactive: 0.994.

With `CN(C)CC(=O)N[C@@H]1CC[C@H](CCNS(=O)(=O)c2ccccc2)O[C@H]1CO`, the relative growth was inactive: 1.01. For the molecule `CC(=O)O[C@H]1CCS(=O)(=O)C1`, the relative growth was inactive: 1.

On to `C[C@@H]1CN([C@H](C)CO)C(=O)c2cccc(NC(=O)c3cnccn3)c2O[C@@H]1CN(C)S(=O)(=O)c1cn(C)cn1`, for which the relative growth is inactive: 0.989. With `C[C@@H]1CCCCO[C@@H](CN(C)C(=O)Nc2ccccc2)[C@H](C)CN([C@H](C)CO)C(=O)c2cc(NS(=O)(=O)c3ccccc3)ccc2O1`, the relative growth was inactive: 1.04. The result for `CCCN(C)C[C@H]1OCCCC[C@@H](C)Oc2ccc(NC(=O)C3CCCCC3)cc2C(=O)N([C@@H](C)CO)C[C@H]1C` reads inactive: 1.03.

Turning to `C[C@@H]1CN([C@@H](C)CO)C(=O)Cc2cc(NC(=O)Nc3ccc(F)cc3)ccc2O[C@H]1CN(C)Cc1ccc(Cl)c(Cl)c1`, the relative growth was inactive: 1.03. The result for `NC1=NC(=O)C[C@H](Cc2ccccc2)N1` reads inactive: 1.01. For the molecule `C[C@H](CO)N1C[C@H](C)[C@H](CN(C)S(=O)(=O)c2ccccc2)Oc2ccc(NC(=O)C3CC3)cc2CC1=O`, the relative growth was inactive: 1. The result for `COc1ccc(S(=O)(=O)N(C)C[C@@H]2Oc3ncc(C#CC4(O)CCCC4)cc3C(=O)N([C@H](C)CO)C[C@@H]2C)cc1` reads inactive: 1; that for `CC(C)NC(=O)N(C)C[C@@H]1Oc2ncc(-c3ccc(C(=O)N(C)C)cc3)cc2C(=O)N([C@H](C)CO)C[C@H]1C`, inactive: 0.983; that for `C[C@@H]1CN([C@@H](C)CO)C(=O)Cc2cc(NS(=O)(=O)c3ccc(Cl)cc3)ccc2O[C@H]1CN(C)C(=O)Nc1cccc2ccccc12`, inactive: 1.03. For the molecule `CN(C)C(=N)N=C(N)N`, the relative growth is inactive: 1.01. In the case of `C[C@H](CO)N1C[C@H](C)[C@H](CN(C)C(=O)c2cccc(F)c2)Oc2cc(-c3ccncc3)ccc2S1(=O)=O`, the relative growth was inactive: 0.96. Regarding `CC(C=CC1(O)C(C)=CC(=O)CC1(C)C)=CC(=O)O` (mixture of isomers) ["ABSCISIC ACID (cis,trans; +/-)"], the relative growth is inactive: 1.05.

The values above are taken from the supplement of paper PMC9446081.
